Several values for one entry are separate records, joined by “and”; a condition that tells them apart may be missing. Equal entries are not always repeated. In all, about 350,000 compounds went through this assay and about 700 (0.2%) were called active. The call rests on the fitted dose curve; in most records, active means well fitted inhibition curve with a large enough effect; inconclusive means small, poorly fitted or top-dose-only effect; inactive means flat fitted curve, though single readings scatter. The entries are a selection whose mix differs from that of the whole data set. Some structures have more than one record in an assay (separate samples or runs), and their calls can disagree.
These compounds were tested against RecQ-like DNA helicase BLM (Homo sapiens) (UniProt P54132) (assay: qHTS Assay for Inhibitors of Bloom's syndrome helicase (BLM)). Conditions: recombinant BLM DNA unwinding, fluorescence dequenching; series mostly up to 56.1 µM; activity change, negative = inhibition: at the top concentration.
Further: nearly all actives have a fitted effect of over 35% in size.
Potency means the concentration at half of the fitted maximal effect.
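Wherever activity change, negative = inhibition is given: plate controls were vehicle for no effect and no enzyme for full effect.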

Sequence of UniProt P54132 (P54132 whole entry, looked up): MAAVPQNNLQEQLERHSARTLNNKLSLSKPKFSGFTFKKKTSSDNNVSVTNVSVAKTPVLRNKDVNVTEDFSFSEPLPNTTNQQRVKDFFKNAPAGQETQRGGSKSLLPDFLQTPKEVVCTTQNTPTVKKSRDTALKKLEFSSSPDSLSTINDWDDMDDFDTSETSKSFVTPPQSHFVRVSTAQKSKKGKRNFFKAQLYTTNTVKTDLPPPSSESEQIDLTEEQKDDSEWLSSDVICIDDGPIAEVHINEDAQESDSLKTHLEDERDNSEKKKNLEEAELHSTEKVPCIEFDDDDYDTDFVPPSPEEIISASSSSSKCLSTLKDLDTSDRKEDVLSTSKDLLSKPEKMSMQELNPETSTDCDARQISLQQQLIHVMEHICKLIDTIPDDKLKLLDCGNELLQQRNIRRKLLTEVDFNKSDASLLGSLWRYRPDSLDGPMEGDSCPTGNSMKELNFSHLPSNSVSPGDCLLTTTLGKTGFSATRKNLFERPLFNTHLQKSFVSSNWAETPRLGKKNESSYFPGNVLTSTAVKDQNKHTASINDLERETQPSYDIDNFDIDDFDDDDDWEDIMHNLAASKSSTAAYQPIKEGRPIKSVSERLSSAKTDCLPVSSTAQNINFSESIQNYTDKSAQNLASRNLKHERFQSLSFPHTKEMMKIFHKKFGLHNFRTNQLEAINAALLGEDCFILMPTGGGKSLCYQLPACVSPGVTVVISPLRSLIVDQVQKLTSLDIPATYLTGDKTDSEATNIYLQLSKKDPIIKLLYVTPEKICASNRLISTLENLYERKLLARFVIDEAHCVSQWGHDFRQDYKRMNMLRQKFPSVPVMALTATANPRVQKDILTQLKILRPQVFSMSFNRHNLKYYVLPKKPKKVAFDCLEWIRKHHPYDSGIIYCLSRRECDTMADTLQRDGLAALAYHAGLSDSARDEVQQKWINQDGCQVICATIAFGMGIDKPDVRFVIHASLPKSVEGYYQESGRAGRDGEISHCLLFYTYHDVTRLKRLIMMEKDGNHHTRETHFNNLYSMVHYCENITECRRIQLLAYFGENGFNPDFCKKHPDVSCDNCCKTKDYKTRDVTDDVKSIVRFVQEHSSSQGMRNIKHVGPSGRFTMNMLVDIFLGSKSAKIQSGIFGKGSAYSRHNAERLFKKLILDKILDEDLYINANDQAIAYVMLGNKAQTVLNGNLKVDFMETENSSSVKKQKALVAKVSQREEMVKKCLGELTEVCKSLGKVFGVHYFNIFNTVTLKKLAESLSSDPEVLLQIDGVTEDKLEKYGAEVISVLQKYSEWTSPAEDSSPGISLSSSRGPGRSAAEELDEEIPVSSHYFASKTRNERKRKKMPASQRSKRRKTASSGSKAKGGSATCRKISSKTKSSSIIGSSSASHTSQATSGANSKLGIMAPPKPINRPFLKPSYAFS

Activity change, negative = inhibition, inactive:
Fc1cccc(/C=N/N=C/c2cccc(F)c2)c1 -3.16%, CN(C)CCO[C@](C)(c1ccccc1)c1ccccn1 3.42% [at 21.4 µM], CN(C)c1ccc(/C=C2/C(=O)Nc3ccccc32)cc1 -9.29%, C=C[C@@]1(C)CC(=O)[C@]2(O)[C@@]3(C)[C@H](O)CCC(C)(C)[C@@H]3[C@H](O)[C@H](OC(C)=O)[C@@]2(C)O1 -0.509%, CC12CCC3c4ccc(O)cc4CCC3C1CCC2O (configuration not stated) -3.21%, Oc1cc2c(c(Cl)c1O)CCNC[C@H]2c1ccccc1 -6.72%, C[C@@]12C(=O)OC(=O)[C@]1(C)[C@H]1CC[C@@H]2O1 1.74% [at 21.4 µM], O=C(O)CCC(=O)N1CCC[C@H]1C(=O)O 1.51%, CC(=O)SCC[N+](C)(C)C -1.24%, Nc1ccc(-c2ccc3ccccc3n2)cc1 -4.86%, CCOc1cccc(CNc2ccc(O)cc2)c1OCc1ccccc1Cl -10.2%, COc1cc(-c2ccc(N=Nc3ccc4c(S(=O)(=O)O)cc(S(=O)(=O)O)c(N)c4c3O)c(OC)c2)ccc1N=Nc1ccc2c(S(=O)(=O)O)cc(S(=O)(=O)O)c(N)c2c1O -4% [at 21.4 µM], N#CC(=C(/N)Sc1ccccc1N)/C(C#N)=C(/N)Sc1ccccc1N -7.96%, NS(=O)(=O)c1cccc2c1c([N+](=O)[O-])cc1nc(O)c(O)nc12 -8.69%, C[C@@]12C(=O)OC(=O)[C@@]1(C)C1CCC2O1 1.9%, CC1(C)S[C@H]2[C@@H](NC(=O)C(N)c3ccccc3)C(=O)N2[C@H]1C(=O)O (some centres not stated) -1.1%, S=C(Nc1ccccc1)Nc1nccs1 7.46%, CC(=O)NCCc1c[nH]c2ccc(O)cc12 4.98%, C[C@@]12C=CC(=O)C=C1CCC1C3CC(O)[C@@](O)(C(=O)CO)[C@]3(C)CC(O)[C@]12F (some centres not stated) 2.52%, CN1CCc2ccccc2Cc2[nH]c3ccccc3c2CC1 -2.52%, N[C@H](CO)C(=O)O -14%, CO[C@@]1(NC(=O)CSCC#N)C(=O)N2C(C(=O)O)=C(CSc3nnnn3C)CS[C@@H]21 -6.34%, CCC(NC(C)C)C(O)c1ccc(O)c(O)c1 (configuration not stated) -0.345%, O=C(O)c1ccccc1Nc1ccccc1 7.51%, COC(=O)[C@H]1[C@@H]2C[C@H]3c4[nH]c5ccccc5c4CCN3C[C@@H]2CC[C@@H]1O 0.36%

Potency, inactive:
O=C1NCN(c2ccccc2)C12CCN(CCCC(c1ccc(F)cc1)c1ccc(F)cc1)CC2, O=[N+]([O-])c1cccc2c(Br)[nH]nc12, COc1cc(Cc2cnc(N)nc2N)cc(OC)c1OC, CN1CCN2c3ccccc3Cc3ccccc3[C@@H]2C1, O=C1N=C(O)CN1/N=C\c1ccc(-c2ccc([N+](=O)[O-])cc2)o1, Cc1[nH]c(=O)c(C#N)cc1-c1ccncc1, CC(C)NC[C@H](O)COc1ccc(CC(N)=O)cc1, COC(=O)C1C2CC3c4[nH]c5cc(OC)ccc5c4CCN3CC2CC(OC(=O)c2cc(OC)c(OC)c(OC)c2)C1OC (configuration not stated), NC12CC3CC(CC(C3)C1)C2, N[C@@H](C(=O)N[C@@H]1C(=O)N2C(C(=O)O)=C(Cl)CS[C@H]12)c1ccccc1

Potency, active:
Cc1ccc(/C=c2\sc3nc(-c4ccco4)nn3c2=O)o1 25.1 µM, O=C(CCl)Nc1ccccc1Sc1ccc(Cl)cc1 15.8 µM, Cn1c(SCC(=O)c2cc(Cl)c(Cl)s2)nnc1-c1ccco1 12.6 µM, O=C(O)CSc1cc(C(=O)c2ccccc2O)cn2c(=O)c3c(-c4ccccc4)csc3nc12 28.2 µM, Cc1cc(-c2nc3c4c5c(sc4[nH]c(=O)n3n2)CCC5)c(C)o1 14.1 µM, COc1cc(-c2nnc(SCc3cc(=O)oc4cc(O)c(O)cc34)o2)cc(OC)c1OC 10 µM, COc1ccc2nc(-c3ccco3)c(-c3ccco3)nc2c1 12.6 µM, CNC(=O)COC(=O)c1cc(-c2ccco2)nc2ccccc12 15.8 µM, Cc1ccc(N=Cc2cc(Cc3ccccc3Cl)cc([N+](=O)[O-])c2O)c(O)c1 15.8 µM, O=C(CCCCCCCC(=O)NNC(=O)Nc1ccccc1)NNC(=O)Nc1ccccc1 28.2 µM, CCCNC(=O)c1c(N)n(-c2ccc(S(N)(=O)=O)cc2)c2nc3ccccc3nc12 20 µM, CCc1cc(=O)oc2cc(C)c(CN3CCCCC3)c(O)c12 17.8 µM, O=C(COC(=O)C1(c2ccc(F)cc2)CCCC1)NCc1ccco1 22.4 µM, O=[N+]([O-])c1cc(Br)cc(C=Nc2ccc3c(c2)OCO3)c1O 14.1 µM, C#CCOCCOCCOCCNc1nc(N2CCN(C(=O)[C@H](Cc3cc4ccccc4[nH]3)n3cc([C@@H](N)CC(C)C)nn3)CC2)nc(N2CCN(C(=O)[C@H](Cc3cc4ccccc4[nH]3)n3cc([C@@H](N)CC(C)C)nn3)CC2)n1 22.4 µM, Cn1c2ccccc2c(=O)n2c(=O)c3ccccc3cc12 25.1 µM, C[n+]1cccc2cccc([O-])c21 25.1 µM, O.O.O.O.O.O.O.O=S(=O)([O-])[O-].[Co+2] 8.91 µM, COc1cc(/C=C2\SC(=O)N(CC(=O)Nc3ccc(C)cc3)C2=O)cc(Cl)c1OCC(=O)O 10 µM, Cc1ccc(C2=NC(=O)/C(=C/c3cc(O)c(O)c(Br)c3)S2)cc1 3.55 µM, O=C(c1ccccc1)c1ccc2nc(-c3ccco3)c(-c3ccco3)nc2c1 14.1 µM, Cc1c(CC(=O)N2CCN(C(=O)C3COc4ccccc4O3)CC2)c(=O)oc2c(O)c(O)ccc12 (configuration not stated) 8.91 µM, CC1(C)C(=O)NC2=C1C(=O)C(=O)c1ccccc12 2.82 µM and 2.51 µM, O=C(COC(=O)c1cc2c(s1)CCC2)Nc1ccc(F)cc1 15.8 µM, O=C(O)c1c(Cl)c(Cl)c(Cl)c(Cl)c1-c1c2cc(I)c(=O)c(I)c-2oc2c(I)c(O)c(I)cc12 11.2 µM and 14.1 µM, CN1\C(=C/C=C/C=C/C=[N+](C)C)C(C)(C)c2ccccc21 28.2 µM, Cc1cc(=O)[nH]c2c(N=Nc3ccc(O)cc3)c(N)nn12 15.8 µM

From PubChem BioAssay AID2528 (National Center for Advancing Translational Sciences (NCATS), 2010)
